More than one record can exist for a structure, and the calls need not agree.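 Treatment: one concentration, 48 hours, 96-well format. Scoring: percent growth, with anything below 10 considered active.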 Some entries of the source have several records that differ or are many. This list holds those alone. There may be further records. The screen tested this drug many times, at its own concentration, as given; one value stands for one run. Brackets with × give the number of equal values in this list.
Tested on: SK-MEL-2 melanoma
Assay: NCI-60 one-dose screen, 48 h (100 = growth as untreated, 0 = no growth, -100 = all killed)

## COc1cccc2c1C(=O)c1c(O)c3c(c(O)c1C2=O)C[C@@](O)(C(=O)CO)C[C@@H]3OC1CC(N)C(O)C(C)O1 (stereo not given in full)
0.25 µM, runs of 2009
  growth: inactive: 27.5, 39.3 (2×), 14, 34.4, 86.3, 95.8, 105, 80.5, 64.5, 59.9, 69.1, 83.8, 44.2, 50.2, 61.6, 49.3 (2×), 65, 61.7, 67.9, 67.2, 61.1, 44.1, 46.5, 48.2, 40.6 (2×), 30.6, 55.4, 49.1, 68.8, 36.8, 45.5, 90.3, 62.8, 74.3, 83.7, 62, 47.5, 42.2 (2×), 44.9, 74.2, 28.2, 57.4, 66.7, 23.5, 46.4, 32.6, 28.9, 51.7 (2×), 50.4, 19.8, 52.9, 23.2, 50.5, 64.1, 85.6, 47.8 (2×), 72.5, 72.4, 69.9, 45, 41.5, 42.8, 28.3, 56.3, 41.6% and active: 3.22%
0.25 µM, runs of 2010
  growth: inactive: 48.7, 43.1, 46.9, 49.1, 40, 74, 50.3, 63.3, 60.4, 43.9, 47.8, 50.5, 43.6, 37.4, 38.9, 61.1, 37.2, 37.6, 24.5, 38.6 (2×), 47.2 (2×), 50.6, 37.1, 62.6, 65.4, 57.2, 32.7, 53, 55.7, 77.4, 44, 39, 40.3, 48.3, 39.7, 41.9, 56.9, 63.6, 112, 45.6, 72.2, 87.6, 67.3, 55.5, 63.1, 45.4, 62.7, 60% and active: 7.62%
0.25 µM, runs of 2011
  growth: inactive: 88.7, 63.6, 57.7, 52.7, 63, 71.5, 83.1, 66.2, 61.4, 31.2, 87.3, 68.9 (2×), 47.3, 96.9, 104, 67.1, 89.6 (2×), 88.6 (2×), 95.3, 86.8, 83, 74.2, 84.4, 86, 92.5, 62.5 (2×), 47.4, 84, 42.4, 53.6, 75.2, 56.2, 47.5, 40.7, 68.5, 59.2, 47.8, 53.3, 25.7, 51.8, 56, 60.3, 38.5, 85.2, 80.9, 60.6, 54.7, 72.1, 84.7, 73.6, 72.6, 69.5%
0.25 µM, runs of 2012
  growth: inactive: 67.2 (2×), 38.9, 60.6, 66.1, 65.8, 49.8, 61.6, 73.9, 71.8, 86.8, 37.3, 39.1, 54.1, 66, 44, 57.4, 43, 53.3, 29.2, 45, 44.7, 33, 49, 64.1, 80.9, 82.1, 76.5, 59.3, 69, 76, 87.5, 73, 63.3, 87.9, 73.5, 52.3 (2×), 88.9, 61.2, 76.2, 71.5, 95.4, 87.2, 63.2, 98.6 (2×), 106, 108, 110, 122, 115, 95.1, 119, 92.8, 45.5, 33.2, 76.9, 68, 52.2, 83.6, 83.8, 55, 38.7, 83.7, 32.2, 70.6%
0.25 µM, runs of 2013
  growth: inactive: 49.2, 96.8, 70.7, 57.4 (2×), 62.7, 77.6, 80.1, 79.7, 80.4 (2×), 87.3, 94.6, 86.6, 95.3, 82.4 (2×), 85.7, 81.1, 88.7, 68.6, 77, 69.2, 87.9 (2×), 93.1, 87.4, 79.8, 86.1, 92.4, 82.1, 95, 80.7, 78, 86.5, 89.2, 79.4, 81.8, 89.5, 62.2, 76, 75.9, 76.3, 108, 105, 110, 86.3, 77.2, 88.8, 73, 63.8, 63.2, 71.1, 56.8, 61.5, 62.4, 54, 81.7, 62.5, 84.3, 85, 91.4, 46.5, 68.3, 65.2, 77.3%
0.25 µM, runs of 2014
  growth: inactive: 52 (2×), 64 (4×), 48.6, 36.2, 61.5 (3×), 63.5, 51, 57.7, 60.9 (2×), 67.2, 68, 56.8, 81.1, 67, 63.9, 58.2, 77.6, 82, 68.1, 71.5 (3×), 78.1 (2×), 77.3, 76.6, 73.5, 82.5, 79.5, 65.8, 64.7, 64.3, 67.3, 75.2, 73, 65.7, 75.1, 70.7, 63.3 (2×), 62.8, 72.3, 67.1, 58.3, 60.1, 53, 72, 61.8, 54, 42.3, 39.7, 64.5, 43.9, 52.2, 64.6, 68.8, 48, 48.5, 59.4, 79.9, 61.9, 69.5, 61.6, 70.9, 69, 76.5, 49.4, 86.3, 58.7, 65.4, 73.1, 52.1, 68.3%
0.25 µM, runs of 2015
  growth: inactive: 77.3, 67.3, 37.6, 98.1, 50.8, 64.3, 80, 71.4, 52.7 (3×), 54.1, 57.6 (2×), 67.7, 64.9, 74.7, 80.8, 75.4, 42.8, 41.7, 52.4, 61.2, 77.5, 59.6, 53.1, 62.5, 68.1, 78, 61.4, 37, 14.2, 67.9, 52.9, 54.5, 42.2, 40.2, 45.6, 44.7, 58.2, 48 (2×), 50.7, 46.3, 46.8, 50.1, 56.5 (2×), 62.7, 59.8, 62.1, 42.3, 60.3 (2×), 64.6, 79.5, 66.4, 78.2, 63.6, 86.9, 76.3, 79, 71.3, 48.3, 56.8, 69.7, 83.5, 67.6, 55.8, 77.6, 51.4, 83.8, 75.8, 79.6, 74.5, 65.6, 60.8, 50.4, 62, 46, 60.4, 67.1, 53.8, 50.5, 51, 40.8%
0.25 µM, runs of 2016
  growth: inactive: 58.9, 64.8 (3×), 65.8, 59.7, 57.5, 53.9, 66.4 (2×), 61.8 (3×), 45.1, 55.8, 51, 58.2, 44.5 (2×), 40, 63.8, 46, 46.4 (2×), 56.2, 54.3, 43, 25.5, 47.6 (2×), 46.8, 37.2, 57 (2×), 29.6, 57.9 (2×), 54.9, 39.3, 50.2, 49.2, 63.5, 47.3, 54.8 (2×), 59.9, 53.8, 49.1, 55.3, 60.5, 61.5, 58.3, 58.4, 50.7, 62.8, 90, 85.8, 82.3, 74.8, 66.3, 59, 64.7, 62.7, 53, 58.5, 59.6, 60.6, 76.2, 67.2, 79.6, 51.4, 57.6, 55.5, 64, 62.2, 70.7, 69.7, 58.7, 60.7, 47.1, 40.4, 48.3, 50.4, 66.7, 51.2%
0.25 µM, runs of 2017
  growth: inactive: 64.9, 61.9, 62.8 (2×), 60.6, 49.9, 54, 42.3, 50.7 (2×), 56.4, 59.4 (2×), 47.2, 51.2, 56.1 (2×), 55.8, 48.1, 50.8, 48.5, 50.4 (2×), 46.3, 46.9, 52.3, 47.6 (2×), 65.2, 47.8 (2×), 52.9, 57.2 (2×), 51.7 (2×), 61.8, 39.7, 58.6, 64.1, 54.3, 44.7, 52 (3×), 52.4, 63.1, 49.2, 60.8, 59.3, 45.9, 60.1, 67.4, 58.1, 59.2, 68.3, 60.4, 50.6, 48.6, 52.7, 57, 61.2, 58.8, 53.6, 50.2, 57.4, 61.4, 61, 62.7, 57.5 (2×), 59.9, 58.3, 57.9, 55, 49.7, 57.3, 52.2, 51.6, 49, 56, 58.5, 61.1%
0.25 µM, runs of 2018
  growth: inactive: 58.1, 61.3, 58.9, 56.7, 62.2 (2×), 64 (2×), 58.3, 60.6, 60.2, 55, 66.9, 69, 67.3, 63.1, 58.5, 42.8, 82.4 (2×), 63.9, 67.1, 69.4, 67.8, 62.7, 65.4, 68.1, 63.3, 73.2, 78.9, 58.6, 60.8, 72.6, 65.3, 60.3, 45.6, 61.2, 70.2, 81.6, 84.4, 72.3, 73, 66.7, 79.4, 73.5, 75.8, 73.9, 67.2, 70.7, 61.9, 70.6, 66.3, 56.6, 44.6, 59.7, 41.3, 28.5%
0.25 µM, runs of 2019
  growth: inactive: 47.5, 32.9, 42, 43.6, 51, 54.8, 51.2, 57.8, 50.4, 47.4, 61, 50.6, 62.3, 61.5, 59, 62.5, 59.8, 47.6 (2×), 67.9, 60.6, 67.8, 56.5, 55.3, 63.9, 68.4, 63.4 (2×), 54.1 (2×), 67.2, 55, 61.9, 64.6, 67.3, 63, 64.1, 52.7, 65, 73.1, 66, 58.5, 68.6, 48.5, 70.1, 70.2, 48.7, 55.8, 48.6, 58.9, 56%
0.25 µM, runs of 2020
  growth: inactive: 51.3, 55.6, 62.8, 58.8, 67.8, 67.6, 60.9, 72.1, 72.5, 83.1, 67.4, 66.4, 62, 68.1, 88.2, 66.7, 59.9, 83.6, 62.7, 70.3, 76.2, 62.2, 47.7, 50.1, 49.7%
0.25 µM, runs of 2021
  growth: inactive: 82.5, 97.4, 88.2, 93.8, 83.3, 71.6, 82.4, 86.8, 76.9, 81.6, 65.5, 81.8, 71.5 (3×), 81, 74.7, 78.9, 74.5, 72.2, 95.8, 62.7, 53.8, 61.3, 62.8, 59.4, 56.2, 73.3, 87.7, 81.9, 68.5, 62, 67.2, 66.3, 70.8, 61.2, 95.6, 78.1, 99.7, 67.8, 81.1, 76.7, 44.1, 78.7, 122, 61, 54.8, 81.4, 73.4, 82%
0.25 µM, runs of 2022
  growth: active: -35.3%, -10.7%, -52.2% and inactive: 50.8, 41, 33.1, 19.4, 51.5, 54.2, 78.3, 51.3, 79, 89.3, 75.3, 74.9, 61.2, 60.3, 56.5, 106, 95.2, 123, 127, 132, 94, 88.1, 83.9, 69%
25 µM, runs of 1991
  growth: active: -83.9, -82.3, -93.6, -91.9, -99, -94.8, -85.5, -74.1, -94, -99.5, -97.1, -56.4, -88.8, -88.5, -92.1, -90.8, -94.1, -96, -96.5%

Source: PubChem BioAssay (NCI)
